Measurements published in publication PMC4336329 (PLoS ONE, 2015).
About 2,200 (0.71%) of roughly 310,000 compounds showed an effect of 50% or more. Effects have a minus sign here. Some of the results follow.

molecular target: human ether-à-go-go-related gene (hERG) potassium channel (human, UniProt Q12809); assay: primary screen, population patch clamp on CHO cells stably expressing hERG
Sequence (Q12809 whole entry, looked up): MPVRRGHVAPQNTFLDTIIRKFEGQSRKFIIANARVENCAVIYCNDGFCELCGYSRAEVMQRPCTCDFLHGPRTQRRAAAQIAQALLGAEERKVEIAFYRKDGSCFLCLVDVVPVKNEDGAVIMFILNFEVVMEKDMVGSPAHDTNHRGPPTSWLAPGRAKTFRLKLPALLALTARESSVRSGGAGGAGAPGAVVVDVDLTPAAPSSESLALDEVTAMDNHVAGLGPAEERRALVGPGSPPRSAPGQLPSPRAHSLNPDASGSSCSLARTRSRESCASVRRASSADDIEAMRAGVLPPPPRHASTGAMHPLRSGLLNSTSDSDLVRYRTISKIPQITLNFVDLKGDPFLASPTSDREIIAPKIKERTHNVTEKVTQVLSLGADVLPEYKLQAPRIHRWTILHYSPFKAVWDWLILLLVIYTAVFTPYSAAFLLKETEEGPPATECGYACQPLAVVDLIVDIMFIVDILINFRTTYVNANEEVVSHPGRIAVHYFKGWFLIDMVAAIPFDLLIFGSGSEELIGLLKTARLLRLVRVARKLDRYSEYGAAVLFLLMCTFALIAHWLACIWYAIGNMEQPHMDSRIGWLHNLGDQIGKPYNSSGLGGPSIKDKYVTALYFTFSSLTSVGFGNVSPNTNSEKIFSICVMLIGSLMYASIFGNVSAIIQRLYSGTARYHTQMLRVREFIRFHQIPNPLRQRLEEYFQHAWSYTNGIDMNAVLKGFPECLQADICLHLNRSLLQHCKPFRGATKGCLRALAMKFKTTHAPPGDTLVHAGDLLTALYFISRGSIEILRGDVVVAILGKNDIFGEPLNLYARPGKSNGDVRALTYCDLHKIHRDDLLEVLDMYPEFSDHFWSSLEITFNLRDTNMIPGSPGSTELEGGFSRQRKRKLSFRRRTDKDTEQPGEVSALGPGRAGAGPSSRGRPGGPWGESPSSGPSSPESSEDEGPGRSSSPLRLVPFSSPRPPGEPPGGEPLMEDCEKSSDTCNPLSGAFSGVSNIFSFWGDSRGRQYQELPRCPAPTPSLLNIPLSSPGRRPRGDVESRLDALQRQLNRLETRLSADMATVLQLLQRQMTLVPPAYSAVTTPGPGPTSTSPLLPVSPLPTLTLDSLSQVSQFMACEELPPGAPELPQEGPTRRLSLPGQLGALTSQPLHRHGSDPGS

Compound | hERG current change (%, negative = inhibition) at 1uM [%]
O=C(CSc1ccc(F)cc1)Nc1ccccc1Br | 13.7
CCCCC1N2CC3([N+](=O)[O-])CN1CC([N+](=O)[O-])(C2)C3(C)C (centres unmarked) | 11.1
Cc1ccccc1NC(=O)Nc1nc2ccc(S(C)(=O)=O)cc2s1 | 3.79
COc1cc(NC(=O)COC(=O)CC(NC(C)=O)c2ccccc2)cc(OC)c1 (centres unmarked) | 8.83
CC(C)C(=O)Nc1ccc2c3c(cccc13)CC2 | 10.5
N#Cc1c(-c2ccco2)cc(C2CC2)nc1SCC(=O)c1ccccc1 | 14.9
Cc1ccccc1-n1ncc(C(C)NS(=O)(=O)c2ccccc2Cl)c1C (centres unmarked) | 4.96
Cc1c(C(=O)O)sc2[nH]c(=O)n(Cc3ccccc3)c(=O)c12 | 14.4
CCCCn1c(N)c(N(CCOC)C(=O)c2cccc(N3C(=O)c4ccccc4C3=O)c2)c(=O)[nH]c1=O | 13.7
CCCCCCCNC(=O)C1(CC2CC(c3ccc(Cl)cc3)=NO2)CCN(C(=O)CCCCCBr)CC1 (centres unmarked) | -52.1
Cc1nnc(NC(=O)CSc2nnc(C)n2Cc2ccccc2)s1 | 15.9
COc1ccc(NC(=O)Cc2cccs2)c(OC)c1 | 2.52
CCc1cccc(C)c1Nc1nc2ccccc2n2cnnc12 | -6.58
CC(O)CNc1ccc(-c2n[nH]c(=O)c3ccccc23)cc1[N+](=O)[O-] (centres unmarked) | 6.59
Cc1ccc(Oc2ncccc2NC(=O)CC(CC(=O)O)c2ccccc2)c2c1CCC2 (centres unmarked) | 10.1
COc1ccc(N/C=C/C(=O)C(C)(C)C)cc1 | 2.04
O=C(c1ccc2c(c1)OCO2)N1CCC2(CC1)Oc1ccc(F)cc1C(=O)C21CC(c2cccnc2)=NO1 (centres unmarked) | 4.11
Cc1ccc(-n2nc(C(=O)NN)c(C)c(C#N)c2=O)cc1Cl | 12.5
COc1ccc2[nH]c3c(c2c1)CCNC3C1CC=C(C)CC1.Cl (centres unmarked) | 5.8

Compound | hERG current change (%, negative = inhibition) at 1uM [%]
CC(=O)c1sc(-c2ccccc2)cc1NS(=O)(=O)c1ccc(C)cc1 | 7.24
CN(C(=O)COC(=O)CSc1cc(Cl)ccc1Cl)c1c(N)n(Cc2ccccc2)c(=O)[nH]c1=O | 2.32
CCOc1ccc([C@@H]2CC=C(C(=O)O)[C@H](c3ccc(Cl)cc3)N2S(=O)(=O)c2ccc(C)cc2)cc1 | 14.7
Cc1cnc(CN(C)C(=O)C2CCC(=O)N(CCc3ccccc3)C2)[nH]1 (centres unmarked) | 16.3
Cc1ccnc2nc(C(=O)OCC(=O)NC(=O)NCc3ccco3)nn12 | 14.5
Cc1nn(C)c(C)c1NS(=O)(=O)c1ccc(Cl)cc1 | 6.13
CC(CCc1ccccc1)NC(=O)C1CCN(c2nnc(-n3cccc3)s2)CC1 (centres unmarked) | 9.13
O=C(O)c1ccccc1C(=O)NC1CCCCNC1=O (centres unmarked) | 13.5
O=C(NCC1CCCO1)C1CCCN1C(=O)Nc1ccc(Cl)c(Cl)c1 (centres unmarked) | -1.87
CCOC(=O)C1=C(C)NC2=C(C(=O)CC(C)(C)C2)C1c1coc2ccccc2c1=O (centres unmarked) | 16.1
CCOc1ccccc1NC(=O)Nc1ccccn1 | -1.49
Cc1ccc(Nc2c(N)c(=O)oc3ccccc23)cc1 | -1.81
Cc1cccc(-c2c3c(=O)n(C)c(=O)n(C)c3cn2C2CCCCC2)c1 | 14.9
CC(=O)Nc1ccc(N(CC(=O)NC2CCCCC2)C(=O)Cn2nnc(-c3ccccc3)n2)cc1 | 11.4
CC1(c2nnc(-c3ccc(F)cc3)o2)CC(c2ccc(F)cc2)=NO1 (centres unmarked) | 1.91
Cc1c(-c2cc(C(=O)O)c3ccccc3n2)cnn1C | 5.51
CCn1c(Cc2ccc(OC)cc2)nnc1SCC(=O)Nc1ccc(N2CCOCC2)cc1 | 10.6
COc1ccc2c(c1OC)C(=O)N(c1ccc(OCc3ccccc3)cc1)C2=O | 14.3
Cc1ccc(Cn2cccc(NC(=O)NC3CCCCC3)c2=O)cc1 | 9.24

Compound | hERG current change (%, negative = inhibition) at 1uM [%]
CCn1c(=O)c2cc(S(=O)(=O)NCCOc3ccccc3)ccc2n(CC)c1=O | 8.38
CC(OC(=O)C1CCCCC1)C(=O)Nc1ccc(S(N)(=O)=O)cc1 (centres unmarked) | 9.37
CN1C(=S)SC(N(O)C=C2C=CC(=O)C=C2)C1(C)C (centres unmarked) | 2.23
Cc1nn(C(C)C(=O)NCc2ccc(Cl)cc2)c(=O)c2cc3occc3n12 (centres unmarked) | -0.612
Cc1nc(NC(=O)c2csc3ccccc23)sc1C | -0.974
Cc1cc(-n2c(C)cc(C(=O)CSc3nnnn3-c3ccccc3)c2C)no1 | -2.58
CCCCc1oc2c(c(=O)c1C)C(=O)CC(c1ccccc1)C2 (centres unmarked) | -7.99
CCCC(=O)Nc1ccccc1N1CCN(C(=O)c2ccccc2)CC1 | -8.85
COC(=O)C1C2C=CC3(CN(CC4CCCO4)C(=O)C13)O2 (centres unmarked) | 20.1
COc1ccc[nH]c1=O | 1.28
CC(=O)N[C@@H](C)C(=O)N1CCN(S(=O)(=O)c2ccc(Cl)cc2)CC1 | 3.31
Cc1cc(NC(=O)CCC(=O)N(Cc2cccs2)C(C(=O)NC2CCCC2)c2cccnc2)no1 (centres unmarked) | 19
COc1cc2c(cc1OC)C(C(=O)Nc1ccc(F)c(Cl)c1)CC(=O)N2 (centres unmarked) | 13.9
O=C(COc1ccc2c(c1)CCC2)NCc1ccc(Cl)cc1 | 13.5
Cc1ccnc(NC2(C(F)(F)F)N=C(c3ccccc3)NC2=O)c1 (centres unmarked) | 10.2
CCOC(=O)NC(=O)/C(C#N)=C\c1ccccc1 | 12.3
Cc1cc(NC(=O)CCC(=O)N(CC(=O)NC2CCCC2)c2ccc(Cl)cc2)no1 | -5.62
CCn1nnc(NC(=O)c2ccc([N+](=O)[O-])o2)n1 | 8.58
